Reference: article PMC4336329 (PLoS ONE, 2015)
The whole screen tested about 310,000 compounds, of which about 2,200 (0.71%) showed an effect of 50% or more. The effect is printed as a negative number. The list shows a part of the results.

These compounds were tested against human ether-à-go-go-related gene (hERG) potassium channel (human, UniProt Q12809) (assay: primary screen, population patch clamp on CHO cells stably expressing hERG).
human ether-à-go-go-related gene (hERG) potassium channel, sequence (Q12809 whole entry, looked up): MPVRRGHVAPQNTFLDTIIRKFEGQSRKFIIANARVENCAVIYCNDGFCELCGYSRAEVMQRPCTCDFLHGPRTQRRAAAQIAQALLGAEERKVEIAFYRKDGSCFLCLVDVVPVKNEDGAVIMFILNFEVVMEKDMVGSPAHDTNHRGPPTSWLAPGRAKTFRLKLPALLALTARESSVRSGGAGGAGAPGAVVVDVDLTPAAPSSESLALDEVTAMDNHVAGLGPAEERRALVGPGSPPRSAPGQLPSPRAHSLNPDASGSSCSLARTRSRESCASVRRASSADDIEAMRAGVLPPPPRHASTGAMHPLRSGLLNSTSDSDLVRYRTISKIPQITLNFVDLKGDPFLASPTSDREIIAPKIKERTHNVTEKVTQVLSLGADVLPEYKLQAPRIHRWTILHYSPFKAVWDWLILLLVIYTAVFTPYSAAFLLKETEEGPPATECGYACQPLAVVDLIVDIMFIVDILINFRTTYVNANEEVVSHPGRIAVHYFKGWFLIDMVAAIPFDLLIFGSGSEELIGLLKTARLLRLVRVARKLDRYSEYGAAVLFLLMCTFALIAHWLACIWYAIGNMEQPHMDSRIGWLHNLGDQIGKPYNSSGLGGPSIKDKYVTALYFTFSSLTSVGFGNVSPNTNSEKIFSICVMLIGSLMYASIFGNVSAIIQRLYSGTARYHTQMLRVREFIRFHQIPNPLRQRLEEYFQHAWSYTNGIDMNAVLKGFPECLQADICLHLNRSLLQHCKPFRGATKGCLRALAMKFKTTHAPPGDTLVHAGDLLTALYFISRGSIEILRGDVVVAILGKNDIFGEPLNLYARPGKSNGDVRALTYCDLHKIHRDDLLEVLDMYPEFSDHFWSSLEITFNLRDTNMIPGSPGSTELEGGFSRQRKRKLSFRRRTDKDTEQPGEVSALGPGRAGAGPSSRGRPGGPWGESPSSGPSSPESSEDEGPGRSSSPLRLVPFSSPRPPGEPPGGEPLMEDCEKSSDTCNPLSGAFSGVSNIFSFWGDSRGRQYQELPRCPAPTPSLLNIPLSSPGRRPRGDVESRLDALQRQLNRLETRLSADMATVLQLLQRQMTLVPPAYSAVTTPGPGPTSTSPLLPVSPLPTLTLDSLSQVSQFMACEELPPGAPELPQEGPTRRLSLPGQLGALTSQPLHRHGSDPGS

Row | Structure (SMILES) | hERG current change (%, negative = inhibition) at 1uM
1 | Cn1c(N/N=C2\CCCc3ccccc32)nc2c1c(=O)n(Cc1ccccc1)c(=O)n2C | -0.318%
2 | CC(C)C1N(C(=O)CN2CCCC2)CCN1S(=O)(=O)c1ccccc1 (stereo not shown) | 9.14%
3 | CC(C)C(=O)c1cn(Cc2ccc(C#N)cc2)c2ccccc12 | 1.95%
4 | CN1CCN(CCCNC(=O)C2CC(=O)N(C3CCCCC3)C2)CC1 (stereo not shown) | 7.52%
5 | CC(OC(=O)CCN1C(=O)C2CC=CCC2C1=O)C(=O)Nc1cccc(Cl)c1 (stereo not shown) | -4.43%
6 | COc1ccccc1NC(=O)c1ccccc1NC(=O)c1cc(Cl)ccc1NC(=O)c1ccco1 | 6.24%
7 | O=[N+]([O-])c1ccccc1N/N=C/c1ccccc1 | 13.3%
8 | CC(NC(=O)c1ccc(Cl)cc1)c1nnc(SCc2ccc([N+](=O)[O-])cc2)n1C (stereo not shown) | -17.1%
9 | NS(=O)(=O)c1ccc(CCNS(=O)(=O)c2cccc3nsnc23)cc1 | 9.84%
10 | Cc1ccc(S(=O)(=O)N[C@@H](C)C(=O)N2CCC(C(=O)N[C@@H](Cc3ccccc3)C(=O)O)CC2)cc1 | 17.7%
11 | Cc1ccc(NC(=O)CCC(=O)OC(C)C(=O)c2ccccc2)cc1 (stereo not shown) | 12.8%
12 | Cc1ccccc1C(=O)Nc1ccc(S(=O)(=O)N2CCOCC2)cc1 | 9.47%
13 | CC1(C)C(=O)OC(c2cccs2)C2(CCCCC2)C1=O (stereo not shown) | 5.41%
14 | CC1CCN(C(=O)c2cccc(NC(=O)c3cccs3)c2)CC1 | 16.6%
15 | Cc1sc(CO)c(Sc2ccccc2)c1C(=O)O | 11.7%
16 | CCCCOc1ccc(C2C(=O)N(C3CCCCC3)CC(=O)N2CC2CCCO2)cc1 (stereo not shown) | -9.42%
17 | CC(C)N1CC(C(=O)Nc2ccccc2)CC1=O (stereo not shown) | 15.7%
18 | COC(=O)CN1C(=O)COc2ccc(S(=O)(=O)N3CCOCC3)cc21 | 14.5%
19 | CCN(CC)CCNC(=O)c1ccc(NC(=O)c2ccc(F)cc2F)cc1.Cl | -10.8%
20 | COc1ccc(Oc2c(-c3ccc(O)cc3O)n[nH]c2C)cc1 | 11.1%
21 | COc1ccc(COC(=O)c2ccc(Br)c(S(=O)(=O)N3CCOCC3)c2)cc1F | 15.9%
22 | COC(=O)c1sc(N2CCN(c3ccc(Cl)cc3)CC2)nc1N | 12.6%

Row | Structure (SMILES) | hERG current change (%, negative = inhibition) at 1uM
23 | CN(Cc1nccs1)C(=O)C1CCC(=O)N(CCc2cccc(F)c2)C1 (stereo not shown) | 12.5%
24 | Cc1ccccc1OCCC(=O)OCC(=O)Nc1ccc(N2CCOCC2)cc1 | -9.5%
25 | O=C1CNC(=O)/C(=C\c2ccccc2)N1 | 10.7%
26 | O=C(O)c1ccc(S(=O)(=O)N2CCC(Cc3ccccc3)CC2)cc1 | 18.6%
27 | C=C(C)COc1ccc(-c2n[nH]c(C)c2-c2ccc(Br)cc2)c(O)c1 | 1.05%
28 | COC(=O)C(=Cc1ccc(-c2ccsc2C(=O)OC)o1)C(=O)OC | 13.9%
29 | CCN1CCN(Cc2c(O)ccc3c(C)cc(=O)oc23)CC1 | 27.3%
30 | Cc1c(Cc2ccccc2)c(NCCCO)n2c(nc3ccccc32)c1C#N | 3.12%
31 | CN(Cc1ccc(OC(F)F)cc1)C(=O)c1ccc2nccnc2c1 | -12.1%
32 | COc1c(OC(C)=O)ccc(/C=C/c2ccc3ccccc3n2)c1[N+](=O)[O-] | -4.88%
33 | CC(OC(=O)c1ccccc1Br)C(=O)Nc1nc(-c2cccc([N+](=O)[O-])c2)cs1 (stereo not shown) | 0.149%
34 | CCN(CC)S(=O)(=O)c1ccc(-c2nnc(SC)o2)cc1 | 4.8%
35 | Cc1c(C(=O)N/N=C/c2ccccc2)[nH]c2ccc(Cl)cc12 | 18.2%
36 | CCCC(=O)NCCc1nc2ccccc2n1CCC | 10.7%
37 | O=C(CCN1CCOCC1)NNC(=S)NC(=O)c1ccc(Br)cc1 | 32.1%
38 | O=C(Nc1ccc(S(=O)(=O)N2CCCC2)cc1)c1ccc(CN2CCc3ccccc3C2)cc1 | 8.1%
39 | O=C(Nc1cccc(C(=O)Nc2ccc(Br)cc2)c1)c1ccccc1 | 11.1%
40 | COc1ccc(N2CCN(S(=O)(=O)c3cc4c(cc3C)N(C(C)=O)CCO4)CC2)cc1 | 16.9%
41 | O=C(O)c1cccc(NC(=S)NC(=O)c2ccc3ccccc3c2)c1 | 10.4%
42 | COc1ccccc1/C=C/C=N/NC(=O)Cc1cccs1 | -3.24%
43 | Cc1ccc(C(=O)N2CCCCC2)cc1S(=O)(=O)N1CCOCC1 | 18.1%
44 | COc1ccc(C(=O)Nc2ccc(S(=O)(=O)N3CCCC3)cc2)cc1 | 5.44%

Row | Structure (SMILES) | hERG current change (%, negative = inhibition) at 1uM
45 | Cc1ccc(Cn2nnc3c(=O)n(CC(=O)OCc4ccccc4)cnc32)cc1 | 3.03%
46 | CCc1ccccc1NC(=O)c1nnn(CC(=O)Nc2ccccc2C)c1N | 6.71%
47 | CCC(NC(=O)c1ccc(C#CC2(O)CCCCC2)cc1)C(=O)O (stereo not shown) | 16.3%
48 | CCOC(=O)c1[nH]c(C)c(C(=O)N2CCN(c3ccc(OC)cc3)CC2)c1C | 2.74%
49 | CN(C)S(=O)(=O)c1cccc(NC(=S)N/N=C/c2cccc(O)c2)c1 | 1.58%
50 | Nn1c(COc2ccccc2)nc2ccccc2c1=O | 2.39%
51 | O=C(OCc1c(F)cccc1Cl)c1cccc(S(=O)(=O)N2CCOCC2)c1 | -8.43%
52 | O=C(COC(=O)CNC(=O)C1CCCCC1)Nc1ccc2ccccc2c1 | -7.85%
53 | COc1ccccc1/C=N/NC(=O)c1ccc(-c2ccccc2)cc1 | 5.04%
54 | O=C(c1ccccc1)[C@H]1CC=CC[C@H]1C(=O)O | -0.136%
55 | Cc1ccc(C(=O)C2C(=O)c3ccccc3C2=O)cc1 | -0.431%
56 | CCOC(=O)[C@H]1[C@H]2COc3ccc(C)cc3[C@@H]2N2C(=O)c3ccccc3NC(=O)[C@@]12C | 7.96%
57 | COc1ccccc1-n1nc(C(=O)O)c2ccccc2c1=O | 3.3%
58 | N#CCSc1nc2scc(-c3cccs3)c2c(=O)n1CCc1ccccc1 | 14.5%
59 | CCOc1ccc2nc(NCCCNS(=O)(=O)c3ccc(F)cc3)c(C#N)cc2c1 | 2.62%
60 | CCNC(=O)NC(=O)CN(C)c1ccccc1 | 4.36%
61 | CC(c1nnc(SCC(=O)N2CC(=O)Nc3ccccc32)n1Cc1ccccc1)N(C)C (stereo not shown) | 2.46%
62 | O=C(CC1C(=O)NCCN1Cc1cccc(F)c1)NC1CCC1 (stereo not shown) | -0.463%
63 | Cn1c(=O)c2[nH]c(N3CCN(c4ccccn4)CC3)nc2n(C)c1=O | 10%
64 | CCOCCCNS(=O)(=O)c1ccc2c(c1)CCN2C(=O)CC | 7.94%
65 | O=C(CCC(=O)Nc1ccccc1Cl)NNC(=O)NC1CCCCC1 | -4.24%
66 | CCOC(=O)N1CCN(C(=O)C2CCN(Cc3ccc(O)c(OCC)c3)CC2)CC1.O=C(O)C(=O)O | 16.3%

Row | Structure (SMILES) | hERG current change (%, negative = inhibition) at 1uM
67 | Cc1nc2ccc(NS(=O)(=O)c3ccc(Br)cc3)cc2s1 | 8.87%
68 | O=C(C[n+]1ccccc1)N/N=C/c1cc(Br)ccc1F.[Cl-] | 5.46%
69 | CC(=O)Nc1cccc(NC(=O)C2CC3CCC2C3)c1 (stereo not shown) | -4.6%
70 | O=C1Nc2c(c(=O)[nH]c(=O)n2-c2ccc(F)cc2)C1(NS(=O)(=O)c1ccccc1)C(F)(F)F (stereo not shown) | 8.65%
71 | CCOc1ccc(N(CC(=O)NCC2CCCO2)S(=O)(=O)c2ccc(OC)c(OC)c2)cc1 (stereo not shown) | 5.13%
72 | Nn1c(-c2ccc(F)cc2)nc2ccccc2c1=O | 15.2%
73 | CCOc1cc(/C=C2\SC(N3CCCCC3)=NC2=O)ccc1O | 15.2%
74 | Cn1c(=O)n(CCCOc2ccc(Cl)cc2)c2ccccc21 | 4.97%
75 | COc1ccc(NC(=O)Nc2ccc3nc(C)c(C)nc3c2)cc1 | 12.7%
76 | Cc1c(Cl)cccc1NC(=O)c1cc(S(=O)(=O)N2CCOCC2)cn1C | 6.5%
77 | COC(=O)CCSc1nc(N2CCOCC2)c2c(c1C#N)CC(C)(C)OC2 | 11.1%
78 | Cc1ccc(NC(=O)CSC2=Nc3ccccc3C3CC=NN23)c(C)c1 (stereo not shown) | 3.86%
79 | CCNC(=O)COC(=O)CCC(=O)c1cccs1 | 3.16%
80 | Cc1cccc(N(CC(=O)NCCc2ccccc2)C(=O)CCC(=O)Nc2ccccn2)c1C | 3.08%
81 | CCS(=O)(=O)N1Cc2ccccc2CC1C(=O)Nc1ccc(NC(C)=O)cc1 (stereo not shown) | 12%
82 | O=C(NCC1CCCO1)c1cn(Cc2ccccc2)nc1-c1ccc(Cl)cc1 (stereo not shown) | 15.2%
83 | COC(=O)c1c(NC(=O)CN2C(=O)C(=O)N(CC(C)C)C2=O)sc2c1CCCCC2 | 7.72%
84 | CN1CCN(Cc2c(C(=O)N3CCc4ccccc4C3)nc3ccc(Cl)cn23)CC1 | -13%
85 | COCCNC(=O)C1CCN(C(=O)C2CC(=O)N(c3ccc(C)cc3)C2)CC1 (stereo not shown) | 10.2%
86 | CCN(CC)c1ncnc2c1cnn2Cc1ccc(C)cc1 | 9.6%
87 | Cc1ccc(C)c(NC(=S)N2CCN(S(=O)(=O)c3ccccc3)CC2)c1 | 15.2%
88 | O=C(c1ccco1)N1N=C(c2ccc3nccnc3c2)CC1c1ccccc1 (stereo not shown) | -0.0178%
